Here are results for 56 variants from the RNAGym collection of RNA variant scans (doi:10.7554/elife.90254).

The source gives no read counts; variants with many changes may rest on few reads.

First the molecules themselves.
B1: LINE1-mini (parent)
chain: GGCAGAGCUCAACACAGCGUGGCAAAGUGGCUGUGGCUAGACUGCC

In the series the parent is B1. The experiment in a line: self-cleavage, relative activity (ratio to wild type); higher = more cleavage; in vitro, sequencing; the parent is a self-cleaving ribozyme.
As for GGUAGGGCUCCAUACAGCGUUGCAAAGCGGCUGUGGCUAAACGGCC [C3U A6G A11C C13U G21U U28C G40A U43G], the self-cleavage was 0.
Consider GGGAGAGCUCAACACAGCGUGGCAAAGUGGCUGUGGCGAGACUCCC [C3G U38G G44C], for which the self-cleavage was 0.01.
The result for GGUGGAGCUCAACACAGCGUGGCAAAGUUGCUGUGGCUAGACCGCU [C3U A4G G29U U43C C46U] reads 0.3; that for GGUAGAGCUCACCACAGAGUGGCAAAGUGGCUGUGGGUAGACUGCC [C3U A12C C18A C37G], 0.03.
On to GGUAGAGCUCAACACAGCGUGGCUAAGUGGCUGUGGCUAUACUGCC [C3U A24U G40U], for which the self-cleavage was found to be 0.09.
The result for GGGAGAGCUCAACACAGCGUGGCAAAGUUGCUGUAGCUAGACUGCC [C3G G29U G35A] reads 0.32; that for GGUCGAACUCAACACAGCGUGGCAAAGUGACUGUGGCUAGACUGCC [C3U A4C G7A G30A], 0.96.
With GGUGGAUCUCCACACAGCGUGGCAAAGUGGAUGUGGCUAGACUGCC [C3U A4G G7U A11C C31A], the self-cleavage is 0.03.
The result for GGGAGAGCACAACAUAGCGUGGCAAAAUGGCUGUGGCUAGACUGCC [C3G U9A C15U G27A] reads 0.44; that for GGUAGAGCUCAACCCAGCGUUGCAAAGUGGCUGUGGCUAGAGUCCC [C3U A14C G21U C42G G44C], 0.01.
For GGUAGAGCUCAACACGACGUGGCAAAGUCGCUGUGGCUAGACUGCC [C3U A16G G17A G29C], the self-cleavage came out at 0.05.
The result for GGGAGAGCUCAACACAGCGUGGCAAAGUUUCUGUGGGUAGACUGCC [C3G G29U G30U C37G] reads 0.05; that for GGUUGAGCUCAACACAGCGUGGUAAAGUGGCUGUGGUUAGACUGCC [C3U A4U C23U C37U], 0.08; that for GGUAGAGCUCGACACAGCGUGGCAAAGUGGCAGUGGCUAGACUACC [C3U A11G U32A G44A], 0.01.
Take GGUAGAGCUCACCACAGCGUGGCAAAGUGGCUGUGGCUAGACUGCA [C3U A12C C46A]: the self-cleavage worked out at 0.01.
As to GGUAGAGCUCACCUCAGCGUGGCAAAGUGGCUGUGGCUAGACUGCC [C3U A12C A14U], the self-cleavage amounted to 0.02.
The result for GGUCGAGCUCUACACAGCGUGGCGAAGUGGCUGGGGCUAGACUGCC [C3U A4C A11U A24G U34G] reads 0.03; that for GGGAGAGCUCAACACAGCGUGGCAAAGCGGCUGUGGAUAGACUGCC [C3G U28C C37A], 0.01; that for GGUAGAGCUCAUCACAGCGUGGCAAAGUGGCUUUGGCUAGACUGCC [C3U A12U G33U], 0.12.
Regarding GGGAGAGCUCAACACAGCGUGGCAAAGUGGCUGUGGCGAGACUGCU [C3G U38G C46U], the self-cleavage came out at 0.13.
For GGGAGAGCCCAACACAGCGGGGCAAAGUGGCUGUGGCUAGACUGCC [C3G U9C U20G], the self-cleavage came to 0.01.
On to GGUAGCGCUCAACACAGCGAGGCAAAGUGGCUGUGGCUAGACUGCC [C3U A6C U20A], for which the self-cleavage came to 0.51.
The result for GGUGGAGUUCAACACAGCGUGGCAAAGUGGGUGUGGCUAGACUGCG [C3U A4G C8U C31G C46G] reads 0.14; that for GGUAGAGCUCGACACAGCGUUGCAAAGUGGCUGUGGAUAGACUGCC [C3U A11G G21U C37A], 0.02; that for GGUAGAGCUCUACACAGCGUGUCAAAGUGGCUGUGGCUUGACUGCC [C3U A11U G22U A39U], 0.08.
With GGUAGAGCUCAACACGGCGUGGCAAAGUGGCUGUGGCUAGAAAGCA [C3U A16G C42A U43A C46A], the self-cleavage was found to be 0.18.
The result for GGUAGAGCUCCACACAGCGUAGCAAAGUUGUUGUGGCUAGACUGCC [C3U A11C G21A G29U C31U] reads 0.02; that for GGUAGGGCUUAACACCGCGUGGCAAAGUGGCUGUGGCUAGACUGCC [C3U A6G C10U A16C], 0; that for GGGAGAGCUCAACACAGCGUGGCAAAGUGGCUGUGCCUAGGCUGCU [C3G G36C A41G C46U], 0.01.
For the variant GGUAGAGCUCAACCCAGCAUGGCAAAGUGGCUGUGGCUAGAGUGCC [C3U A14C G19A C42G], the self-cleavage is 0.04.
Take GGUAGGGCUCAACACAGCGUAGCAAAGUGGCUUUGGCUAGACUGCC [C3U A6G G21A G33U]: the self-cleavage came to 0.05.
The result for GGGAGAGCCCAACACAGCGUGGCAAAUUGGCUGUGUAUAGACUGCC [C3G U9C G27U G36U C37A] reads 0.01.
The result for GGGAGAGCCCAACACAGCGUGGCAAAGUGGCUGUGGCUACACCGCC [C3G U9C G40C U43C] reads 0.11.
Regarding GGUAGCGCUCAACUCAGCCUGGCAAAGUGGCUGUGGCUAGACUACC [C3U A6C A14U G19C G44A], the self-cleavage was 0.76.
The result for GGUAGCGCUCAACACAGCGUGGCAAAGUGGCCGUGGCUAGACUGCC [C3U A6C U32C] reads 0.06; that for GGUGUGGCUCAACACAGCGUGGCAAAGUGGCUUUGGCUAGACUGCC [C3U A4G G5U A6G G33U], 0.39.
As to GGUAGAGCUCAACACAGCGUGGCAUACUGGCUGUUGCUAGACUGCC [C3U A25U G27C G35U], the self-cleavage turned out to be 0.07.
In the case of GGUAGAGCUCGACACGUCGUGCCAAAGUGGCUGGGGCUAGACUGCC [C3U A11G A16G G17U G22C U34G], the self-cleavage is 0.01.
As to GGUAGGGCGCAACACAGCGUGGCAAAGAGGCUGUGGCUAGUCUGCC [C3U A6G U9G U28A A41U], the self-cleavage was determined as 0.03.
The result for GGUAGAGCUCAACACAGCGUGGCAACGUGCCUGUGGCUAGACUGCA [C3U A26C G30C C46A] reads 0.26.
The result for GGUAGAGCUCAACACUGCGUGGCAACGUGGUUGUGGCUAGACUGCC [C3U A16U A26C C31U] reads 0.03.
In the case of GGUAGAGCUCUACACAGCGUGGCAAAGUGGUUGUGGAUAGAAUGCC [C3U A11U C31U C37A C42A], the self-cleavage is 0.01.
The result for GGUAGAGCUCAACACAGCGUGGCAAGGUGGCAGUGGCUAGACUGUC [C3U A26G U32A C45U] reads 0.08; that for GGUAGGGCUCAACACAGCGUGGCAAAGUGGCUGUGGCUAGAGUGCC [C3U A6G C42G], 0.14.
The result for GGUAGGGCUCAACACAGCGUGGGAAAGUGGAUGUGGCUAGACUGCC [C3U A6G C23G C31A] reads 0.02.
The result for GGUUGAGCUCAACACACCGUGGCAAAGUGGCUGUGGCUAGACUGCC [C3U A4U G17C] reads 0.04; that for GGGAGAGCACAACAAAGCGUGCCAAAGUGGCUGUGGCUAGACUGCC [C3G U9A C15A G22C], 0.36.
For GGUGGAACUCAACACAGCGUGGCAAAGUGGCUGAGGCUAGAGUGCC [C3U A4G G7A U34A C42G], the self-cleavage was 0.01.
The result for GGUAGAGCUCGACACAGCGUGGCUAAGUGGCCGUGGCUAGACAUCC [C3U A11G A24U U32C U43A G44U] reads 0.02.
Regarding GGUAGAGCUCAACUCAGCGUGUAAAAGUGGCUGUGGCUAGACUGCC [C3U A14U G22U C23A], the self-cleavage stood at 0.59.
The result for GGUAGAGCUCAACACAGCGUGGCAAGGUGGCUGUGGGUAGACUACC [C3U A26G C37G G44A] reads 0.02; that for GGUAGAGCUCAACUCAGCGUGGCAAAGUGGCUGUGGCUAUACUGCC [C3U A14U G40U], 0.04.
The result for GGUAGAGCUCAUCACAGCGUCGCAAAGUGGCUGUGGCUAGACUUCC [C3U A12U G21C G44U] reads 0.08.
The result for GGUCGAGCUCAACACAGAGUGGCAAGGUGGCUGUGGCCAAACUUCC [C3U A4C C18A A26G U38C G40A G44U] reads 0.04.
As for GGUAGAGCUCCACACAGCGUGUCAAAUUGGCUGUGGCCAGACUGCC [C3U A11C G22U G27U U38C], the self-cleavage stood at 0.02.
On to GGGAGAGCGCAACUGAGCGUGGCAAAUUGGCUGUGGAUAAACUGCC [C3G U9G A14U C15G G27U C37A G40A], for which the self-cleavage stood at 0.
